Data on 44 compounds can be found in PMC4336329 (PLoS ONE, 2015).

The whole screen tested about 310,000 compounds, of which about 14,000 (4.5%) showed an effect of 50% or more. The effect is printed as a negative number. The list shows a part of the results.
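Also: peak tail current of the secondary pulse compared with the same well before compound.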

The assay deals with human ether-à-go-go-related gene (hERG) potassium channel (human, UniProt Q12809). The assay can be described thus: primary screen, population patch clamp on CHO cells stably expressing hERG.
Sequence of human ether-à-go-go-related gene (hERG) potassium channel (Q12809 whole entry, looked up): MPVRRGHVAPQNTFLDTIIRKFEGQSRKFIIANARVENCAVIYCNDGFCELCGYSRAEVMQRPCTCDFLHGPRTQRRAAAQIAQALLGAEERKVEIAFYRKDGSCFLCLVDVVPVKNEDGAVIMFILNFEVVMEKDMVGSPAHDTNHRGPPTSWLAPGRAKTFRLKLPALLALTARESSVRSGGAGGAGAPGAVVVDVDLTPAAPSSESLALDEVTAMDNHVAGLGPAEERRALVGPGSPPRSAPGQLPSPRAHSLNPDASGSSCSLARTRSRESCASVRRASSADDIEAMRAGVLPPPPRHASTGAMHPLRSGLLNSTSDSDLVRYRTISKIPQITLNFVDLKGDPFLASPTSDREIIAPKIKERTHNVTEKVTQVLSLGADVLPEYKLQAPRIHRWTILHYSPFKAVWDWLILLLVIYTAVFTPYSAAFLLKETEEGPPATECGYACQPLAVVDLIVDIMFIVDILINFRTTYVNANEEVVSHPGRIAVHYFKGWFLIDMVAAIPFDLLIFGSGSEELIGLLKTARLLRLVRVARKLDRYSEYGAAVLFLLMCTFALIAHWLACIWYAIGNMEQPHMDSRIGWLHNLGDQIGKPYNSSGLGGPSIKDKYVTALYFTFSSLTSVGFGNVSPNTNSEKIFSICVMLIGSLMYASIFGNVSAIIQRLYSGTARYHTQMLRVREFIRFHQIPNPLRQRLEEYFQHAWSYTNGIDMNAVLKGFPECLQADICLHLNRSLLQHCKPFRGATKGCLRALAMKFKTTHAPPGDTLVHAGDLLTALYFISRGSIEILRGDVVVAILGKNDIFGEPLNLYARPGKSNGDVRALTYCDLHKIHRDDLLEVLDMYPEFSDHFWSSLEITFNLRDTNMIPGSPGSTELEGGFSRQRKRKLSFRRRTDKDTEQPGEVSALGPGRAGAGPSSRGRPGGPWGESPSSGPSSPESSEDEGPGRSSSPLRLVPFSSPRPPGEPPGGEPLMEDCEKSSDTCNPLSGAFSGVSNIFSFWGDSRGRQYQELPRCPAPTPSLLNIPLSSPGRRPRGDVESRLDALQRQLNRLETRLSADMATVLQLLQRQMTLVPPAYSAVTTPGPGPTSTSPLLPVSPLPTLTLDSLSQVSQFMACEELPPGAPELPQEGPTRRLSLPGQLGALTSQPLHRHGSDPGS
Regarding `O=C(O)CC(c1cccc(C(F)(F)F)c1)N1CCS(=O)(=O)CC1` (centres unmarked), the “hERG current change (%, negative = inhibition) at 10uM” value came to 2.42%.
Turning to `O=C(Nc1cccc(C(F)(F)F)c1)c1csc(-c2ccncc2)n1`, the “hERG current change (%, negative = inhibition) at 10uM” value is recorded as -68.6%.
For the compound `N#CCC(=O)Nc1ccc(C(=O)OCC(=O)NCc2ccc3c(c2)OCO3)cc1`, the “hERG current change (%, negative = inhibition) at 10uM” value is 8.67%.
Turning to `Cc1ccc(NC(=O)c2ccc3c(c2)OCO3)cc1S(=O)(=O)N1CCOCC1`, the “hERG current change (%, negative = inhibition) at 10uM” value was -20.3%.
Turning to `COc1ccc(NC(=O)COc2nsnc2N2CCOCC2)c(OC)c1`, the “hERG current change (%, negative = inhibition) at 10uM” value amounted to 14%.
Regarding `CCOC(=O)N1CCN(C(=O)CCCn2c(=O)[nH]c3ccccc3c2=O)CC1`, the “hERG current change (%, negative = inhibition) at 10uM” value is -13.1%.
As for `Cc1ccc(CSc2ncn(-c3ccccc3)n2)cc1`, the “hERG current change (%, negative = inhibition) at 10uM” value was determined as 1.74%.
To `CCOc1ccc(Br)cc1C(=O)N/N=C/c1cccc(C)n1` belongs 20.1%; to `Cc1[nH][nH]c(=O)c1C(c1ccc(-c2cccc(C(=O)O)c2)o1)c1c(C)[nH][nH]c1=O`, 19.2%; to `O=C(C1CCN(S(=O)(=O)c2ccc(Cl)cc2)CC1)N1CCCC1`, -7.8%.
Consider `O=C(Cc1ccccc1)Nc1ccc(C(=O)Nc2ccc(O)cc2)cc1`, for which the “hERG current change (%, negative = inhibition) at 10uM” value is on record as 8.9%.
For `CCCCn1c(N)c(N(CC(C)C)C(=O)COC(=O)c2ccccc2NCCO)c(=O)[nH]c1=O`, the “hERG current change (%, negative = inhibition) at 10uM” value amounted to 11.4%.
`CCNc1nc(NCC)nc(OCCOC(C)=O)n1`: the “hERG current change (%, negative = inhibition) at 10uM” value stood at 9.95%.
To `O=C(NNC(=O)c1cccc(S(=O)(=O)N2CCN(c3ccccc3)CC2)c1)c1ccc(Cl)cc1` belongs -59.5%; to `Cc1cc(C)n(CCC(=O)N/N=C/c2cccc([N+](=O)[O-])c2)n1`, -17.2%.
Take `O=C(NNC(=O)[C@@H]1CCCC[C@@H]1C(=O)O)Nc1ccccc1`: the “hERG current change (%, negative = inhibition) at 10uM” value stood at 10.5%.
To `CC1CCN(c2nc(-c3ccccc3O)nc3ccccc23)CC1` belongs 33.4%; to `O=C(Cc1ccccc1F)Nc1ccc(S(=O)(=O)Nc2ncccn2)cc1`, 14.8%.
With `CC(=O)c1cccc(S(=O)(=O)N2CCN(c3ccccc3F)CC2)c1`, the “hERG current change (%, negative = inhibition) at 10uM” value is reported as -4.13%.
As for `CC(C)(C)c1cc(NC(=O)COC(=O)c2nccnc2N)n(-c2ccccc2)n1`, the “hERG current change (%, negative = inhibition) at 10uM” value was 0.121%.
For the compound `CN1CCN(S(=O)(=O)c2ccc(Nc3ccc(F)cc3)c([N+](=O)[O-])c2)CC1`, the “hERG current change (%, negative = inhibition) at 10uM” value was -51.3%.
`COc1c(S(=O)(=O)NCCN2CCOCC2)ccc(Cl)c1Cl`: the “hERG current change (%, negative = inhibition) at 10uM” value was -16.3%.
Take `CCN(CC)/C(N)=N/c1nc(C)cc(C)n1`: the “hERG current change (%, negative = inhibition) at 10uM” value is listed as 7.16%.
Regarding `Cc1cccc(NC(=O)CSc2n[nH]c(-c3cccnc3)n2)c1`, the “hERG current change (%, negative = inhibition) at 10uM” value is given as -0.145%.
Take `CCn1c(=S)sc2c(=O)[nH]c(C)nc21`: the “hERG current change (%, negative = inhibition) at 10uM” value was determined as 13.3%.
As for `COC(=O)c1sccc1NC(=O)CC1C(=O)NCCN1C(=O)c1ccc(F)cc1` (centres unmarked), the “hERG current change (%, negative = inhibition) at 10uM” value is -40.7%.
To `O=C(COc1cccc2cccnc12)NNC(=S)Nc1ccccc1` belongs -25.8%; to `Nc1nc(Nc2ccc(Cl)cc2)c(NC=O)c(=O)[nH]1`, 19.7%.
As to `Cc1ccc[n+](CC(=O)Nc2nc3ccccc3s2)c1.[Cl-]`, the “hERG current change (%, negative = inhibition) at 10uM” value came out at 23.3%.
With `O=C(COc1cc2oc(=O)c3c(c2cc1Cl)CCC3)N1C[C@H]2C[C@@H](C1)c1cccc(=O)n1C2`, the “hERG current change (%, negative = inhibition) at 10uM” value was -12.8%.
To `CC(=O)c1ccc(OCC(=O)OCC(=O)NCc2ccco2)cc1` belongs 17.2%; to `CN1C(=O)C(C)(C)c2cc(S(=O)(=O)N3CCCC(C(=O)NCc4ccc(F)cc4)C3)ccc21` (centres unmarked), -9.6%; to `Cc1ccc(CN2C(=O)CCC2C(=O)NC2CCCC2)cc1` (centres unmarked), 13.6%.
Take `CCOC(=O)C(C)Oc1cc(C)cc2oc(=O)c3c(c12)CCCC3` (centres unmarked): the “hERG current change (%, negative = inhibition) at 10uM” value is listed as -16.4%.
As to `CCCCCn1c(=S)[nH]c2ncccc2c1=O`, the “hERG current change (%, negative = inhibition) at 10uM” value is recorded as 3.94%.
To `O=c1c(-c2ccc(Cl)cc2)coc2c(CN3CCCCC3)c(O)ccc12` belongs -32.7%; to `O=c1c2cc(Cl)ccc2nc(-c2ccccc2Cl)n1O`, 16.4%.
Consider `CC(C)(C)c1ccc(C(=O)NCc2cccnc2)cc1`, for which the “hERG current change (%, negative = inhibition) at 10uM” value is on record as -2.42%.
On to `CC1(C)CC(=O)C2=C(C1)N=C1SCCC(=O)N1C2c1ccc(C(F)(F)F)cc1` (centres unmarked), for which the “hERG current change (%, negative = inhibition) at 10uM” value is -28.5%.
To `O=C(CSc1nc(=O)n(CCCN2CCOCC2)c2c1CCCC2)Nc1cccc(Cl)c1` belongs -62.2%; to `Cc1cc(SCC(=O)OCC(=O)N2CCCC2=O)c(C)cc1Br`, -24.6%; to `CCCCCCc1nc(C(N)=O)c2[nH]c(=O)n(-c3ccccc3F)c2n1`, 16%.
`Cc1occc1C(=O)NNC(=O)c1ccccc1Br`: the “hERG current change (%, negative = inhibition) at 10uM” value was 1.82%.
In the case of `C/C(=C\c1ccccc1F)C(=O)c1c(C)cc(C)[nH]c1=O`, the “hERG current change (%, negative = inhibition) at 10uM” value stood at 15.9%.
